Numbering of substitutions follows the chain as printed. These are yes or no findings as the source states them, for the method shown. For some assays here: Binding seen in cells or lysates may run through a third protein. Some binding calls cover weakened binding; strength is not graded here. Tags and fused reporters may be left off the sequences shown.

For experiment [1], the target named is T1, GTL1N (N-terminal trihelical DNA-binding domain of GT2-LIKE 1) fused with maltose-binding protein (Arabidopsis) (UniProt Q9C882).
T1 sequence: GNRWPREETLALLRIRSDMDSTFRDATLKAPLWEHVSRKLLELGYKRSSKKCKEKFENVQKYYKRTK
Description: far-Western, overlay or dot blot; MBP fusion GTL1 proteins separated by SDS-PAGE and transferred to PVDF; 1 µg/ml HRP-AtCaM2 in overlay buffer (50 mM imidazole-HCl pH 7.5, 150 mM NaCl) in the presence of Ca^2+, 1 h; both purified.

For experiment [2], the target named is T1, GTL1N (N-terminal trihelical DNA-binding domain of GT2-LIKE 1) fused with maltose-binding protein (Arabidopsis). Description: far-Western, overlay or dot blot; MBP fusion GTL1 proteins separated by SDS-PAGE and transferred to PVDF; 1 µg/ml HRP-AtCaM2 in overlay buffer (50 mM imidazole-HCl pH 7.5, 150 mM NaCl) in the presence of EGTA, 1 h; both purified.
Experiment [3] has as its target T2, GTL1N[H94E] fused with maltose-binding protein (Arabidopsis) (UniProt Q9C882).
T2 sequence: T1 sequence with H35E
Kind of experiment: pull-down; MBP or MBP fusion proteins immobilised on amylose resin; in vitro-translated HA-AtCaM2 in CaM-binding buffer (50 mM Tris-HCl pH 7.5, 100 mM NaCl, 1% DMSO, 2 mM DTT, 2 mM CaCl2), 4 °C, 2 h; anti-HA immunoblot; only the target purified.

For experiment [4], the target named is T1, GTL1N (N-terminal trihelical DNA-binding domain of GT2-LIKE 1) fused with maltose-binding protein (Arabidopsis). The description is as above.
The target is the same in experiment [5]. Kind of experiment: pull-down; as a1 but with EGTA treatment (Ca^2+ chelated); MBP fusion proteins on amylose resin, in vitro-translated HA-AtCaM2; anti-HA immunoblot; only the target purified.

Regarding “AtCaM2 conjugated with horseradish peroxidase (HRP) (from UniProt P0DH97 1-149)”, the binding entry is given as “binds” in experiment [1] and “no binding (condition: with EGTA)” in experiment [2].

Consider “HA-Arabidopsis CaM2 (AtCaM2) (from UniProt P0DH97 1-149)”, for which the binding result in experiment [3] is reported as “no binding”; in experiment [4] it was “binds”; in experiment [5], “no binding (condition: with EGTA)”.

Values taken from paper PMC6706580.
